{"source": "paper PMC7819943", "about": "“Rice protein-binding microarrays: a tool to detect cis-acting elements near promoter regions in rice”", "note": "This is one part of the list.", "data": [{"target": "T1, OsWOX13 (Oryza sativa, UniProt Q5QMM3 1-267)", "T1 sequence": "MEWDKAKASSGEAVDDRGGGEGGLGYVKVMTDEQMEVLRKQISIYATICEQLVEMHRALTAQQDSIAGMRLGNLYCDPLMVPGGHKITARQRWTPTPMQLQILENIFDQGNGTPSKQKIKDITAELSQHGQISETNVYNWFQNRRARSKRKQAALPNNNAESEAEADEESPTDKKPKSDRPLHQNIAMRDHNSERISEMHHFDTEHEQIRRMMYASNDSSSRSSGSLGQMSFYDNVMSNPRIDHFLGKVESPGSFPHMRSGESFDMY", "assay": "protein-binding microarray (RPBM); PBS, 2% BSA, 51.3 ng/ul salmon testes DNA, 50 uM zinc acetate, 200 nM TF, 25 C, 1 h; high values mean tight binding", "details": "protein: recombinant; tags: N-terminal polyhistidine and DsRed monomer fusion (pET32a); label: CyDye5-dUTP incorporated in the synthesized complementary strand; 3' TTTTT single-stranded linker to array surface; dsDNA, one strand shown", "how_it_was_run": "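Polyhistidine-tagged DsRed fusions of transcription factors, joined at the N-terminus, were expressed in E. coli BL21-CodonPlus and isolated on Ni–NTA. They were incubated at 200 nM for 1 h at 25 °C on a custom Agilent array, double-stranded and BSA-blocked, in PBS with 2% BSA, salmon testes DNA and 50 µM zinc acetate. The binding signal is per-feature fluorescence intensity (arbitrary units) read on an Axon 4000B scanner after washing.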", "values": [{"sequence": "GTGATTGATGTTAATTAGAGCTTACTATTGGTAGTAGGTACGGAGTCACCTAGTGCAG", "binding signal": "51900 fluorescence intensity (a.u.)"}, {"sequence": "GATTTTGATCCAATCAATCTAGTACTCCCTCCGTTTCTAACGGAGTCACCTAGTGCAG", "binding signal": "8640 fluorescence intensity (a.u.)"}, {"sequence": "TGAAATTATTAGCAGGGTTTTAAATCTTCTGTTATAGCTGCGGAGTCACCTAGTGCAG", "binding signal": "4040 fluorescence intensity (a.u.)"}, {"sequence": "TTGATTGGTATAATAATGCAGTCAACACAATAGCCAATCTCGGAGTCACCTAGTGCAG", "binding signal": "20400 fluorescence intensity (a.u.)"}, {"sequence": "GATGCTGATTGGGCTGGATGCTTAGATGATAGAAGGTCAACGGAGTCACCTAGTGCAG", "binding signal": "23300 fluorescence intensity (a.u.)"}, {"sequence": "CTAATTTTATGGTTAATGGACACGATTTAATCTAGACTCTCGGAGTCACCTAGTGCAG", "binding signal": "13800 fluorescence intensity (a.u.)"}, {"sequence": "TCACGCATAAAATATTAATTATATTTTATCATTTAACAATCGGAGTCACCTAGTGCAG", "binding signal": "3250 fluorescence intensity (a.u.)"}, {"sequence": "TGGTTTTAAATTATAATAATGCAGGTCAACTGATATAGTTCGGAGTCACCTAGTGCAG", "binding signal": "4730 fluorescence intensity (a.u.)"}, {"sequence": "AAATACAATTAATACGGATTGAGTATTGTACTGTGCTAATCGGAGTCACCTAGTGCAG", "binding signal": "3330 fluorescence intensity (a.u.)"}, {"sequence": "CGTTAGCCAAAATCACTCCCCAATCAATCGAGGGAGTCATCGGAGTCACCTAGTGCAG", "binding signal": "5120 fluorescence intensity (a.u.)"}, {"sequence": "TTCTTAAACAGAACATTCAAATTAAATACTCTATCCGTCCCGGAGTCACCTAGTGCAG", "binding signal": "4910 fluorescence intensity (a.u.)"}, {"sequence": "TATAATTGACATGCAATTATAATAACGTGGGTTAAATATACGGAGTCACCTAGTGCAG", "binding signal": "33800 fluorescence intensity (a.u.)"}, {"sequence": "ATCTTCTAATTTGTGTCATTACCGTTACCAAAATTATAGTCGGAGTCACCTAGTGCAG", "binding signal": "27000 fluorescence intensity (a.u.)"}, {"sequence": "AGGATTGGACAGAAGAATTGCGGTGGATGCATTGAGGCTCCGGAGTCACCTAGTGCAG", "binding signal": "4470 fluorescence intensity (a.u.)"}, {"sequence": "GTTTTATTTTAACTGACGTTTTGGACAATAACACGGTCTACGGAGTCACCTAGTGCAG", "binding signal": "3560 fluorescence intensity (a.u.)"}, {"sequence": "AAATAATTTCTATCCTGACGCGACTATAAATCGGACGTCCCGGAGTCACCTAGTGCAG", "binding signal": "14200 fluorescence intensity (a.u.)"}, {"sequence": "TAACAAGTCACTCATCAATCCGAATGTTTTCCCGATGGGACGGAGTCACCTAGTGCAG", "binding signal": "3320 fluorescence intensity (a.u.)"}, {"sequence": "TTTCATAATTAACTAGTACTAGTCTGTAACCTTGTATGTTCGGAGTCACCTAGTGCAG", "binding signal": "15700 fluorescence intensity (a.u.)"}, {"sequence": "ATAAATTGTAGCTTGTGACTTTTCACTAATTCTCACGTATCGGAGTCACCTAGTGCAG", "binding signal": "6850 fluorescence intensity (a.u.)"}, {"sequence": "GGACTGTCAATCTTTAATCCTGGAGACCTGGATTATACATCGGAGTCACCTAGTGCAG", "binding signal": "4380 fluorescence intensity (a.u.)"}, {"sequence": "AATTGAGACTTCGGTAAAACTTAAGGGACTAAATTAACTACGGAGTCACCTAGTGCAG", "binding signal": "52700 fluorescence intensity (a.u.)"}, {"sequence": "GTCATCTAATTAACTAGACCTAGGTATGAACTAAGTAATACGGAGTCACCTAGTGCAG", "binding signal": "6630 fluorescence intensity (a.u.)"}, {"sequence": "TGATTAATTTTCTTTTCACGGGATAGATTAATATACGATACGGAGTCACCTAGTGCAG", "binding signal": "18400 fluorescence intensity (a.u.)"}, {"sequence": "AAGTTAATGATGATTTAATGATCATGTGCGTACTTCACTTCGGAGTCACCTAGTGCAG", "binding signal": "27000 fluorescence intensity (a.u.)"}, {"sequence": "AATCAATCACAAAACCTAAGTCATATAGAACGCAGCCAGACGGAGTCACCTAGTGCAG", "binding signal": "15100 fluorescence intensity (a.u.)"}, {"sequence": "GACAGATGTAATTACAGTATAATCGTAGTGTAATTACACTCGGAGTCACCTAGTGCAG", "binding signal": "15500 fluorescence intensity (a.u.)"}, {"sequence": "TCGAAAATTAATTGCAGGAAAGGAAACAAGTAGAGGAATCCGGAGTCACCTAGTGCAG", "binding signal": "26500 fluorescence intensity (a.u.)"}, {"sequence": "GCCTAAATTAGCCGCTAAGGACACCCACAATGGTTATCTACGGAGTCACCTAGTGCAG", "binding signal": "9220 fluorescence intensity (a.u.)"}, {"sequence": "CAAAAGAGCATGATTAGCATCACATGCCATACACGACTATCGGAGTCACCTAGTGCAG", "binding signal": "6080 fluorescence intensity (a.u.)"}, {"sequence": "ACTTAATTAACTTGGTTCTTCCTTTAATTTCTAGCTATATCGGAGTCACCTAGTGCAG", "binding signal": "50100 fluorescence intensity (a.u.)"}, {"sequence": "CCGTCGCCTGATGGAGCAGAATCGTGAAACACGTTGTAAGCGGAGTCACCTAGTGCAG", "binding signal": "57800 fluorescence intensity (a.u.)"}, {"sequence": "GGTGACTAAGAATGAAGAAGATAATTTGGAGTCAACCTTGCGGAGTCACCTAGTGCAG", "binding signal": "4280 fluorescence intensity (a.u.)"}, {"sequence": "TCACCTGACAGGTAATTAACAGGTCCCATGGTATATGAAGCGGAGTCACCTAGTGCAG", "binding signal": "47400 fluorescence intensity (a.u.)"}, {"sequence": "TAATTAATAATTAATTAATTATGTGTTAATTGCTTGCTCCCGGAGTCACCTAGTGCAG", "binding signal": "65500 fluorescence intensity (a.u.)"}, {"sequence": "ATAAAATTAGAAACATGCCACTAACGTCACGCTTTCCATCCGGAGTCACCTAGTGCAG", "binding signal": "5480 fluorescence intensity (a.u.)"}, {"sequence": "CTCTAATAAATAAATAAATCATCAACAATACATGAATATCCGGAGTCACCTAGTGCAG", "binding signal": "4180 fluorescence intensity (a.u.)"}, {"sequence": "TTCATTAGTACATAATTAATTAAGTATATTAGTTAAAAGTCGGAGTCACCTAGTGCAG", "binding signal": "5110 fluorescence intensity (a.u.)"}, {"sequence": "TTTAATTTGCTTCTGTGAGACAGTGAGAGTGGAATTCTGACGGAGTCACCTAGTGCAG", "binding signal": "6870 fluorescence intensity (a.u.)"}, {"sequence": "TAAATATATTGTCAAATTATATTTAATGTTTTATTTGATACGGAGTCACCTAGTGCAG", "binding signal": "3180 fluorescence intensity (a.u.)"}, {"sequence": "TTCTTCTATTTATAATTTCCACTGTTTGTTCAAGTTTAGACGGAGTCACCTAGTGCAG", "binding signal": "3650 fluorescence intensity (a.u.)"}, {"sequence": "TCCGAATTTCAATTAGTTCTAAATTATAAACCGGTATGGACGGAGTCACCTAGTGCAG", "binding signal": "15300 fluorescence intensity (a.u.)"}, {"sequence": "TTTAAAAGTAATTGAAATTGTGTTCTTTAGGCTTAGTAATCGGAGTCACCTAGTGCAG", "binding signal": "9280 fluorescence intensity (a.u.)"}]}]}
